Assay results published in publication PMC4336329 (PLoS ONE, 2015).
About 14,000 (4.5%) of roughly 310,000 compounds showed an effect of 50% or more. Effects have a minus sign here. The list shows a part of the results.

Biological target: human ether-à-go-go-related gene (hERG) potassium channel (human, UniProt Q12809)
Assay: primary screen, population patch clamp on CHO cells stably expressing hERG
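Note: peak tail current of the secondary pulse compared with the same well before compound.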

Sequence of human ether-à-go-go-related gene (hERG) potassium channel (Q12809 whole entry, looked up): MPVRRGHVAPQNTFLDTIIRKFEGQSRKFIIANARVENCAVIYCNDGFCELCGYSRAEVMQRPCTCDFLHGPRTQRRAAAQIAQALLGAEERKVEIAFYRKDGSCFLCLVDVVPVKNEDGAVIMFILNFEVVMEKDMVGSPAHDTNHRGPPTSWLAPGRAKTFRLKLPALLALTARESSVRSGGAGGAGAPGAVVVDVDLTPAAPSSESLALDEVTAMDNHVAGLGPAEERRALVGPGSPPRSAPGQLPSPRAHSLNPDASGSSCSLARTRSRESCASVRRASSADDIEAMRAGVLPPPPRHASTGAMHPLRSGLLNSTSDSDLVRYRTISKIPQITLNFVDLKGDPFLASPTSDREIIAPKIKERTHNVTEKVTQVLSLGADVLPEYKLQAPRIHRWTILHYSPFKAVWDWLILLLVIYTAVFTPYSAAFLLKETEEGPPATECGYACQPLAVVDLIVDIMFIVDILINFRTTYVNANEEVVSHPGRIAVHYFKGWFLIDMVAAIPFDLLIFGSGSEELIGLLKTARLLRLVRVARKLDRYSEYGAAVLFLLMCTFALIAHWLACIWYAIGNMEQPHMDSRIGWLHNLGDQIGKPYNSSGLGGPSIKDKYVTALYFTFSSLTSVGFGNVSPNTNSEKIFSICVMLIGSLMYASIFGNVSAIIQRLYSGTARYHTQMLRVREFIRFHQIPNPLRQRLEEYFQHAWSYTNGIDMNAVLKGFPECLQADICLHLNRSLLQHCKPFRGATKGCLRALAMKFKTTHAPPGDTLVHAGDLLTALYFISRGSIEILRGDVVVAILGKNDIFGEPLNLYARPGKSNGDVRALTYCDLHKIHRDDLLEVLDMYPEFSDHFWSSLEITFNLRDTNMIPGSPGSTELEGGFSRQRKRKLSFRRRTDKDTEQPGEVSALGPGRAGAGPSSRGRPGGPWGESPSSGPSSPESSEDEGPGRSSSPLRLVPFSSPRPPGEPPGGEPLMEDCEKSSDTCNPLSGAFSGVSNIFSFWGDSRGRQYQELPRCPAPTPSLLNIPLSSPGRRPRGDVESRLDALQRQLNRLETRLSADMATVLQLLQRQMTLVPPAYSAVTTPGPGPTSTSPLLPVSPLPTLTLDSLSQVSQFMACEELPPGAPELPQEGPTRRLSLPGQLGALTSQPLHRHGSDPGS

Row | Structure (SMILES) | hERG current change (%, negative = inhibition) at 10uM
1 | CCc1noc(C)c1C(=O)NNC(=O)COc1cc(C)ccc1C | -21.2%
2 | CSCCC(NS(=O)(=O)c1ccc(C)cc1)C(=O)NCC(C)(C)N1CCOCC1 (centres unmarked) | -11.8%
3 | COc1cc(N)c(Cl)cc1C(=O)OCC(=O)N1CCCCCC1 | 5.5%
4 | CNC(=O)NC(=O)CSc1nc2sccc2c(=O)n1-c1ccccc1 | 11%
5 | COc1ccc(C)cc1NC(=O)C(CCS(C)(=O)=O)NC(C)=O (centres unmarked) | 2.33%
6 | COc1ccc2c(c1)[nH]c1c(=O)n(Cc3ccccn3)cnc12 | 4.28%
7 | Cc1sc2ncnc(N[C@@H](CCC(=O)O)C(=O)O)c2c1C | 10.1%
8 | COC(=O)c1sc(NC(=O)c2c(-c3ccccc3)noc2C)nc1C | 20.6%
9 | COc1ccc(Br)cc1S(=O)(=O)N1CCOCC1 | 7.54%
10 | CCN(CC)C(=O)c1ccc(NC(=O)Cn2nc(C)c3ccccc3c2=O)cc1 | -10.3%
11 | C/C(=N\NC(=S)Nc1ccc(C(C)C)cc1)c1ccc2c(c1)OCO2 | 23.1%
12 | Cc1ccc(S(=O)(=O)NCCc2cc3ccc(C)c(C)c3[nH]c2=O)cc1 | 10%
13 | CC(=O)n1cc([C@H]2C=C(C(=O)O)O[C@@H](OCCCCO)C2)c2ccccc21 | 0.0595%
14 | CCCOc1ccc(CNC(=S)N/N=C/c2ccc([N+](=O)[O-])cc2)cc1 | 0.669%
15 | CCc1ccccc1OCCOc1ccc(C)cc1OC | 10.1%
16 | Cc1ccc(-n2nc(C)c3c(C)c(CCC(=O)NCCCOC(C)C)c(C)nc32)cc1 | -53.1%
17 | O=C(CCc1nc2ccccc2c(=O)[nH]1)Nc1cc(C(F)(F)F)ccc1N1CCCC1 | 3.53%
18 | Cc1cccc(OCCC(=O)NCC(=O)Nc2cccc(C)c2C)c1 | 8.48%
19 | CC12CCC(=O)N1C(C(=O)NCc1ccc(Cl)cc1Cl)CS2 (centres unmarked) | -0.564%

Row | Structure (SMILES) | hERG current change (%, negative = inhibition) at 10uM
20 | Cc1cccc(C(=O)NCC(=O)OCC(=O)NC2CCCCCCC2)c1 | 9.01%
21 | CCC(=O)N1c2ccccc2-c2nnc(SC)nc2OC1c1ccc(OC)c(OC)c1 (centres unmarked) | 9.41%
22 | COc1ccc(CC(=O)N2CCc3ccccc32)cc1 | 1.76%
23 | FC(F)(F)c1cc(-c2ccccc2)nc(-n2cncn2)n1 | -17.9%
24 | COC(=O)c1ccc(CSc2nncn2N)cc1 | 17.6%
25 | Cc1cc(C)n(-c2ccc(C(=O)OCC(=O)Nc3ccc(S(=O)(=O)N4CCOCC4)cc3)cc2)n1 | 6.51%
26 | COC(=O)CCn1nc(-c2ccc(Cl)cc2)c2ccccc2c1=O | -11.7%
27 | Cc1cc(-c2nc3ccccc3[nH]2)ccc1N | 23.1%
28 | COc1ccc(C(=O)NCCCNC(=O)c2ccccn2)cc1 | 10.8%
29 | COc1ccc(OCC(=O)N/N=C/C=C/c2ccccc2)cc1 | -16.3%
30 | Cc1cc(NC(=O)Cn2nnc3sc4c(c3c2=O)CCC(C(C)(C)C)C4)no1 (centres unmarked) | -1.9%
31 | CC(C)C(C)(C#N)NC(=O)CSc1nc2scc(-c3ccccc3)c2c(=O)[nH]1 (centres unmarked) | 7.84%
32 | Nn1c(SCC(=O)Nc2ccc3c(c2)OCO3)nnc1-c1cccc(Cl)c1 | -3.9%
33 | O=C(CCc1nnc2ccc(NCc3ccccc3Cl)nn12)NC1CCCC1 | 13%
34 | CC(Sc1nnnn1C1CCCC1)C(=O)Nc1cccc(S(=O)(=O)N2CCOCC2)c1 (centres unmarked) | -18.2%
35 | COc1ccc(-c2noc(CNC(=O)C(C)Oc3ccccc3)n2)cc1 (centres unmarked) | -22.1%
36 | CO/N=C(/CS(=O)(=O)c1ccc(Br)cc1)c1ccc(OC)cc1 | -9.66%
37 | Cc1ccc(C23CC4CC(CC(NC(=O)N5CCN(C)CC5)(C4)C2)C3)cc1 | -4.66%
38 | COc1ccc2nc(NC(=O)CSCC(=O)Nc3cc(C)on3)sc2c1 | 5.23%

Row | Structure (SMILES) | hERG current change (%, negative = inhibition) at 10uM
39 | O=Cc1ccc(OCc2cccc(C(F)(F)F)c2)cc1O | 21.1%
40 | O=C(O)c1ccc(CNC(=O)c2ccc3c(c2)C(=O)N(Cc2cccnc2)C3=O)cc1 | 4.01%
41 | COC(=O)c1ccc(NC(=O)Cn2nc(C(=O)Nc3ccc(C)cc3)ccc2=O)cc1 | 7.09%
42 | O=C1c2ccccc2C(=O)N1CCC(O)C[N+](=O)[O-] (centres unmarked) | 17.8%
43 | COc1ccc(-n2cc(CNCCN3CCOC3=O)c(-c3ccccc3Cl)n2)cc1 | -18.5%
44 | CCC(C)NC(=O)c1ccccc1SC (centres unmarked) | 23.3%
45 | COc1cccc(CNC(=O)CCCn2c(=S)[nH]c3cc4c(cc3c2=O)OCO4)c1 | 13.4%
46 | COc1cccc(NC(=O)CNC(=O)N2CC(=O)Nc3ccccc32)c1 | 7.86%
47 | Cn1c(=O)c2c(nc(NCCc3ccccc3)n2CC(=O)NCCc2ccccc2)n(C)c1=O | 6.57%
48 | CC(C)c1ccc2c(c1)C(N1CCNCC1)Cc1ccc(F)cc1S2.O.O=C(O)/C=C\C(=O)O (centres unmarked) | 5.51%
49 | O=C(CCOc1ccccc1)Nc1ccc([N+](=O)[O-])cc1 | -34.7%
50 | Cc1cccn2cc(-c3cccc(S(=O)(=O)N4CCCCC4)c3)nc12 | -14%
51 | O=C(CCN1C(=O)c2ccccc2C1=O)NCc1ccccc1 | 10.2%
52 | O=C(NCC1CCCO1)NC1CCCCC1 (centres unmarked) | 18.3%
53 | CC(=O)Nc1ccc(-c2nc3ccccc3o2)cc1 | -19.8%
54 | COc1ccc(C(=O)N2CCCC(Nc3ccc(F)cc3)C2)c(OC)c1 (centres unmarked) | 11.1%
55 | CCN1C(=O)c2cccc3c(NC(=O)c4ccc(OC)c(OC)c4)ccc1c23 | -68.3%
56 | CC(=O)c1cccc(OCC(=O)N(Cc2ccco2)c2c(N)n(Cc3ccccc3)c(=O)[nH]c2=O)c1 | -1.06%
